The target of this assay is T1, GST-UBXN7-UAS (human) (UniProt O94888).
T1 sequence: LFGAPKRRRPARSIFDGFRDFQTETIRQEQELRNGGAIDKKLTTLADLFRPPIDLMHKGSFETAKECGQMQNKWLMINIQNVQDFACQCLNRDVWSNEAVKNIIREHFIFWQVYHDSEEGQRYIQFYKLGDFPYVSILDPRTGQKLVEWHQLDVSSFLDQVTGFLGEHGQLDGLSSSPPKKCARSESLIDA
Kind of assay: pull-down; 5 µg GST-UBXN7 constructs on Glutathione Sepharose, 1 h with HEK-293 cellular extracts (untransfected or transfected) in IP150 buffer; western blot; only the target purified. For orientation: In western blotting, separated proteins are transferred to a membrane and probed.

The chains behind the UniProt entries cited, without tags or fusion partners.
UniProt Q969V5: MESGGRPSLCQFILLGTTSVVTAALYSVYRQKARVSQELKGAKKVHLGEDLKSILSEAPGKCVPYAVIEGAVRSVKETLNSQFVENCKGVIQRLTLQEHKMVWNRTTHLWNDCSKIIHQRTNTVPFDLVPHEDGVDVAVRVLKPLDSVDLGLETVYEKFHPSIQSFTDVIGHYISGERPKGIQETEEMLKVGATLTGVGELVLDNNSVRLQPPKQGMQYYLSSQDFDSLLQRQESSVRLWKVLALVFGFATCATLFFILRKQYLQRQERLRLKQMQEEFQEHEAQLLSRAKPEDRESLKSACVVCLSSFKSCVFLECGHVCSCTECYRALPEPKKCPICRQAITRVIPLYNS

Drawing on publication PMC10080908, this text covers binding for 1 substance.

No constants are given. Whether binding was seen depends on the method and setting. Binding seen in cells or lysates may run through a third protein. Tags and fused reporters may be left off the sequences shown.

As for Flag-MUL1 (from UniProt Q969V5 1-352), the binding result is listed as “no binding”.
